Measurements: publication PMC3867114, “Kinetic analysis of the interactions between plant thioredoxin and target proteins” (Frontiers in Plant Science, 2013)
Substitutions are numbered along the chain they refer to. These are yes or no findings as the source states them, for the method shown. Some entries that bind do so weakly or less than the wild type. Blank lines part the entries; values can stand above or below the binder they belong to.

Columns and labels:
[1] = target: T1, Trxh1 mutant with a C43S substitution (Arabidopsis thaliana) (UniProt P29448); experiment: SEC; TSK-G2000SWXL in H buffer, 280 nm; Trxh1CS incubated with the oxidized target at 25°C, complexes treated with 10 mM NEM before the chromatography; both purified
T1 sequence: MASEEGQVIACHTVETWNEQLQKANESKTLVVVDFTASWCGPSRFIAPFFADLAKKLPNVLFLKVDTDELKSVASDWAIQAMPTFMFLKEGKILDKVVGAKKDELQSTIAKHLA

[2] = target: T1, Trxh1 mutant with a C43S substitution (Arabidopsis thaliana); experiment: mixed disulfide complex formation, non-reducing SDS-PAGE with N-terminal sequencing; 50 μM Trxh1CS and 50 μM PrxQ incubated for the periods indicated, quenched with 5% TCA, non-reducing SDS-PAGE; both purified
[3] = target: T1, Trxh1 mutant with a C43S substitution (Arabidopsis thaliana); experiment: condition: only without prior treatment with 10 mM NEM; SEC; TSK-G2000SWXL in H buffer, 280 nm; as a2 but without NEM treatment before the chromatography (for MDH: second round of the fractionated complex); both purified
[4] = target: T2, Trxh1 mutant with a C40S/C43S substitution (Arabidopsis thaliana) (UniProt P29448); experiment: SPR; Biacore X, 25°C; Trx variant immobilised as ligand on a CM5 chip by amine coupling (800–900 RU); target protein injected as analyte; H buffer (10 mM HEPES-NaOH, 150 mM NaCl, 50 μM EDTA, pH 7.4) with 0.005% Surfactant P20; 1:1 model for MDH, double exponential model for PrxQ; apparent (mixed disulfide formation with Trxh1CS); both purified
T2 sequence: T1 sequence with C40S

[5] = target: T3, Trxh1SS after thiol alkylation with NEM (cysteine at position 11 alkylated) (Arabidopsis thaliana) (UniProt P29448); experiment: as above
T3 sequence (chain, cysteine at position 11 alkylated with N-ethylmaleimide (NEM)): T1 sequence with C40S

[6] = target: T1, Trxh1 mutant with a C43S substitution (Arabidopsis thaliana); experiment: as above
[7] = target: T4, Arabidopsis thaliana cytosolic thioredoxin h1, wild type (Arabidopsis thaliana) (UniProt P29448); experiment: as above
T4 sequence: T1 sequence with S43C

binding [1]: binds
binding [2]: binds
binding [3]: no binding
binding [4]: binds
binding [5]: binds
B1: Arabidopsis thaliana chloroplast peroxiredoxin Q, oxidized form (enzyme, UniProt Q9LU86 68-216)
chain: KVNKGQAAPDFTLKDQNGKPVSLKKYKGKPVVLYFYPADETPGCTKQACAFRDSYEKFKKAGAEVIGISGDDSASHKAFASKYKLPYTLLSDEGNKVRKDWGVPGDLFGALPGRQTYVLDKNGVVQLIYNNQFQPEKHIDETLKFLKAA
modifications: Cys45–Cys50 intramolecular disulfide bond (oxidized form)

binding [6]: binds weakly
B2: Arabidopsis thaliana chloroplast peroxiredoxin Q, reduced form (enzyme, UniProt Q9LU86 68-216)
chain: B1 chain

binding [7]: no binding
B3: Arabidopsis thaliana cytosolic malate dehydrogenase, oxidized form (enzyme, UniProt P93819 1-332, looked up)
chain: MAKEPVRVLVTGAAGQIGYALVPMIARGIMLGADQPVILHMLDIPPAAEALNGVKMELIDAAFPLLKGVVATTDAVEGCTGVNVAVMVGGFPRKEGMERKDVMSKNVSIYKSQAAALEKHAAPNCKVLVVANPANTNALILKEFAPSIPEKNISCLTRLDHNRALGQISERLSVPVSDVKNVIIWGNHSSSQYPDVNHAKVQTSSGEKPVRELVKDDAWLDGEFISTVQQRGAAIIKARKLSSALSAASSACDHIRDWVLGTPEGTFVSMGVYSDGSYSVPSGLIYSFPVTCRNGDWSIVQGLPIDEVSRKKMDLTAEELKEEKDLAYSCLS
modifications: Cys330–Cys330 intermolecular disulfide bond (oxidized form)
notes: cytosolic malate dehydrogenase (MDH), Arabidopsis thaliana, AT1G04410; also called MDH; oxidized MDH; source: cloned and purified as described in earlier work; oxidized by incubation with 50 μM CuCl2 for 1 h at 30°C
